Results taken from PubChem BioAssay AID651820 (National Center for Advancing Translational Sciences (NCATS), 2012).
“And” between values parts separate entries of the source, which are not always exact repeats. Equal values may be shown once. In all, about 340,000 compounds went through this assay and about 12,000 (3.5%) were called active. The inconclusive results got no clear call from the source; some entries with a clear call stand among them for comparison. Calls follow the shape of the dose curve; as a rule, active = well fitted inhibition curve with a large enough effect; inconclusive = small, poorly fitted or top-dose-only effect, or another doubt; inactive = no such curve, though single readings can be large or run the other way. Potencies beside an inconclusive call are fits to weak or partial responses and may not hold up.

Test: qHTS Assay for Inhibitors of Hepatitis C Virus (HCV)
Conditions: Huh7.5.1 HCVcc-Cre (HCVcc is cell-culture hepatitis C virus) infection, luciferase reporter, 44 h; activity change, negative = inhibition: at 41.8 µM (top of the series) unless noted
Method in brief: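 A cell-based infection assay in which seeded cells (1,000 per well) receive test compound after 4 h, are inoculated with HCVcc-Cre at approximately 0.5 moi, and are incubated 44 h before luminescence detection.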
% is scaled to controls: 0 for no effect and ±100 for the full control effect; potency is read from the fitted curve at half-maximal effect; tags tell the direction and shape of the fitted curve.

| SMILES | Potency | activity change, negative = inhibition |
| --- | --- | --- |
| NC(=O)c1cccc2c1-c1ccccc1/C2=N/NC(N)=S | inconclusive: 12.6 µM [inhibitor, partial curve] | – |
| CCCCC(CC)CNC(=O)C(Cc1ccccc1)NS(=O)(=O)c1ccc2c(c1)CCC(=O)N2 (stereo not drawn) | inconclusive: 12.6 µM [inhibitor, single point] | – |
| CCOC(=O)c1c(C)[nH]c(C(=O)OCc2ccccc2F)c1C | inconclusive: 1.41 µM [inhibitor, full curve] | – |
| Clc1ccc(OCCOCCN2CCc3ccccc3C2)c(Cl)c1 | inconclusive: 2.82 µM [inhibitor, full curve] | – |
| COc1cc(NC(=O)C2COc3ccccc3O2)c(OC)cc1Cl (stereo not drawn) | inconclusive: 10 µM [inhibitor, partial curve] | – |
| Cn1c(=N)n(CC(O)c2ccccc2)c2ccccc21 (stereo not drawn) | inconclusive: 5.62 µM [inhibitor, single point] | – |
| O=C(CCCn1c(=S)[nH]c2ccsc2c1=O)Nc1ccc2c(c1)OCO2 | inactive | – |
| Cc1ccc(O)c(N=Nc2nccs2)c1 | inconclusive: 7.94 µM [inhibitor, partial curve, poor fit] | – |
| CC[C@@]12C(=O)N(c3cccc(C)c3)C(=O)N1[C@H](c1ccc(OC)cc1)[C@@H]1C(=O)N(C(C)(C)C)C(=O)[C@@H]12 | inactive | – |
| COc1ccccc1-c1cc(C(=O)N2CCCC2)no1 | inconclusive: 12.6 µM [inhibitor, partial curve, poor fit] | – |
| O=C(N/N=C/c1cc2ccccc2nc1Cl)/C(=C/c1cccs1)NC(=O)c1ccccc1 | inconclusive: 22.4 µM [inhibitor, single point] | – |
| CCC(=O)N1CCc2cc(S(=O)(=O)NCCC(=O)N3CCc4ccccc4C3)ccc21 | inconclusive: 31.6 µM [inhibitor, single point] | – |
| C=C(C)COc1ccc(-c2[nH]ncc2-c2ccccc2OC)c(O)c1 | inconclusive: 31.6 µM [inhibitor, single point] | – |
| CCN(CC)S(=O)(=O)c1ccc(C(=O)OCC(=O)Nc2ccc(-c3nc4ccc(C)cc4s3)cc2)cc1 | inconclusive: 3.16 µM [inhibitor, single point] | – |
| CCNC(=S)N1CCN(CC(=O)Nc2ccc(Br)cc2)CC1 | inconclusive: 2.24 µM [inhibitor, partial curve] | – |
| Cc1ccc(NC(=O)Nc2ccccc2)c(Br)c1 | inconclusive: 12.6 µM [inhibitor, partial curve] | – |
| COCCOc1ccc(C(F)(F)F)cc1NC(=O)CN1C(=O)NC2(CCCc3ccccc32)C1=O (stereo not drawn) | inconclusive: 31.6 µM [inhibitor, single point] | – |
| COc1ccccc1CNC(=O)c1ccc2nc(N3CCOCC3)sc2c1 | inconclusive: 31.6 µM [inhibitor, single point] | – |
| CCN(CC)c1ccc(NC(=O)/C=C/c2cc(Br)ccc2OC)cc1 | inconclusive: 2.24 µM [inhibitor, full curve] | – |
| Cc1ccc(C)c2[nH]c(=O)c(CN(Cc3ccco3)S(=O)(=O)c3ccc4c(c3)OCCO4)cc12 | inconclusive: 31.6 µM [inhibitor, single point] and inconclusive: 10 µM [inhibitor, partial curve] | – |
| CSc1ccc(CCNC(=O)C2CCCN(c3ncnc4c3nc3n4CCCCC3)C2)cc1 (stereo not drawn) | inconclusive: 14.1 µM [inhibitor, partial curve] | – |
| CCc1ccc(N(C(=O)CCC(=O)Nc2cc(C)on2)C(C(=O)NC(C)(C)C)c2ccc(OC)cc2)cc1 (stereo not drawn) | inconclusive: 14.1 µM [inhibitor, single point] | – |
| CN(c1cccc(NC(=O)c2ccc(CN3CCc4ccccc4C3)cc2)c1)S(C)(=O)=O | active: 11.2 µM | – |

| SMILES | Potency | activity change, negative = inhibition |
| --- | --- | --- |
| COc1ccc(C(CCN2CCOCC2)c2c(OC)cc(OC)c3c(-c4ccccc4)cc(=O)oc23)cc1 (stereo not drawn) | active: 31.6 µM | – |
| CCN(CC)CCN(C(=O)CCS(=O)(=O)c1ccccc1)c1nc2c(C)cc(C)cc2s1 | inconclusive: 31.6 µM [inhibitor, single point] | – |
| CCC(C(=O)Nc1ccc(C(=O)O)cc1NC(=O)C(CC)c1ccccc1)c1ccccc1 (stereo not drawn) | inactive | – |
| Cc1c([N+](=O)[O-])c2ccc(O)cc2n1-c1ccccc1 | inconclusive: 5.62 µM [inhibitor, single point] | – |
| CC1(C)CC(=O)C2=C(C1)NC1=C(C(=O)c3ccccc31)C2c1ccccc1 (stereo not drawn) | inconclusive: 11.2 µM [inhibitor, partial curve, poor fit] | – |
| CC(C)(C)c1cc([N+](=O)[O-])cc(C(C)(C)C)c1O | active: 10 µM | – |
| Fc1cccc(Cc2noc(CN3CCC(c4ccncc4)CC3)n2)c1 | inconclusive: 10 µM [inhibitor, partial curve] | – |
| CCC(=O)N1c2ccc(S(=O)(=O)N3CCN(c4ccc([N+](=O)[O-])cc4)CC3)cc2CC1C (stereo not drawn) | inconclusive: 3.16 µM [inhibitor, single point] | – |
| Cn1nc(C(F)(F)F)c2cc(C(=O)Nc3ccc(F)c(Cl)c3)sc21 | inconclusive: 2.82 µM [inhibitor, partial curve] | – |
| COc1ccc2c(CN(C)c3ccccc3)cc(=O)oc2c1 | inconclusive: 31.6 µM [inhibitor, single point] | – |
| CC1(C)Cc2c(cnn2-c2ccccc2)C(=O)/C1=N\NC(=O)c1ccccc1O | inconclusive: 14.1 µM [inhibitor, single point] | – |
| CCC(=O)c1c[nH]c(C(=O)NCc2cccc(C(F)(F)F)c2)c1 | inconclusive: 5.62 µM [inhibitor, single point] | – |
| Cc1ccc(Cl)cc1NC(=O)C1CCCN(S(=O)(=O)c2c(C)noc2C)C1 (stereo not drawn) | inactive | – |
| CN1CCCN(Cc2ccccc2Br)CC1 | inactive | – |
| CCn1cc(CN(C)S(=O)(=O)c2ccc3ccccc3c2)c(C)n1 | active: 7.94 µM | – |
| COc1ccc(NC(=O)CSCC(=O)Nc2cccc3ncccc23)cc1 | – | inactive: 0.0382% [at 8.37 µM] |
| CCCc1ccc(OCC(O)CN2CCc3ccccc3C2)cc1 (stereo not drawn) | inconclusive: 31.6 µM [inhibitor, single point] | – |
| O=C1OCCN1C(=O)[C@H]1[C@H](c2ccc(F)cc2)C(c2ccccc2)=NN1c1ccccc1 | inconclusive: 14.1 µM [inhibitor, partial curve] | – |
| COc1cc(C(CCN2CCOCC2)c2c(OC)cc(OC)c3c2OC(=O)CC3c2ccc(N(C)C)cc2)cc(OC)c1OC (stereo not drawn) | inactive | – |
| Cc1cccc(N2CCN(CCCNC(=O)C3CCCN(c4ncnc5c4nc4n5CCCCC4)C3)CC2C)c1 (stereo not drawn) | inconclusive: 8.91 µM [inhibitor, partial curve] | – |
| O=C(NCCc1ccccn1)c1cc(-c2ccc(Cl)cc2)nc2ccccc12 | inconclusive: 11.2 µM [inhibitor, partial curve] | – |
| COc1ccc(C2CC(c3cccc(C(F)(F)F)c3)=NN2c2ccc(S(N)(=O)=O)cc2)cc1 (stereo not drawn) | inconclusive: 31.6 µM [inhibitor, single point] | – |
| CCOC(=O)C1CCN(C(=O)Cn2c(=O)c3cccn3c3cccnc32)CC1 | active: 11.2 µM | – |

| SMILES | Potency | activity change, negative = inhibition |
| --- | --- | --- |
| COc1ccc(-c2cn3cc(C(F)(F)F)cc(Cl)c3n2)cc1 | inconclusive: 31.6 µM [inhibitor, partial curve, poor fit] | – |
| O=C(O)c1ccc(CNC(=O)c2ccc3c(c2)OCCO3)cc1 | inactive | – |
| C=CCC(=O)NC1CCCc2c1cnn2-c1cc(F)cc(F)c1 (stereo not drawn) | inconclusive: 25.1 µM [inhibitor, single point] | – |
| COc1ccc(C2=NN(C(=O)/C=C/c3ccccc3)C(c3ccccc3)C2)c(OC(C)=O)c1 (stereo not drawn) | inconclusive: 31.6 µM [inhibitor, single point] | – |
| CCCC(=O)NC(Nc1cc(C(F)(F)F)ccc1Cl)C(Cl)(Cl)Cl (stereo not drawn) | inconclusive: 11.2 µM [inhibitor, partial curve] | – |
| Cc1ccc(C(=O)NCCCN2CCOCC2)c(Cl)c1 | inactive | – |
| Cc1noc(C)c1COc1cccc(C(=O)N2CCN(C/C=C/c3ccccc3)CC2)c1 | inconclusive: 11.2 µM [inhibitor, single point] | – |
| C=CCN1C(=O)NC(=O)/C(=C/c2ccc(N(C)C)c(Br)c2)C1=O | inactive | – |
| Cc1ccccc1OCC(=O)N/N=C/c1cccc(Oc2ccc([N+](=O)[O-])cc2[N+](=O)[O-])c1 | active: 11.2 µM | – |
| COC(=O)C(CC(=O)c1ccc(Br)cc1)n1ccnc1 (stereo not drawn) | active: 1.26 µM | – |
| CC(OC(=O)c1cccc(-n2cnnn2)c1)c1nc2ccccc2c(=O)[nH]1 (stereo not drawn) | inactive | – |
| CC(C)(C)NCc1cc(Br)ccc1OCc1cccs1 | inconclusive: 11.2 µM [inhibitor, partial curve] | – |
| O=C(N/N=C/c1ccc2c(c1)OCO2)C(O)c1ccccc1 (stereo not drawn) | inactive | – |
| O=C(OCc1cnc(Cl)s1)c1ccc(Cl)cc1 | inconclusive: 5.62 µM [inhibitor, single point] | – |
| CCOc1ccc2nc(NC(=O)CS(=O)(=O)c3ccccc3)sc2c1 | inactive | – |
| CCc1ccc(OCC(=O)NC(C)C)cc1 | inactive | – |
| CCN(CC(=O)NCCc1ccc(S(N)(=O)=O)cc1)Cc1ccccc1 | inactive | – |
| COc1cccc(CNc2ccc(F)c(Cl)c2)c1O | inactive | – |
| CCN(C(=O)c1cc2cc3ccc(C)cc3nc2o1)c1ccc(OC)cc1 | inconclusive: 10 µM [inhibitor, partial curve, poor fit] | – |
| O=C(OCC(=O)N1CCc2ccccc2C1)c1ccc(O)cc1 | inactive | – |
| Cc1cccc(NC(=O)N2CCCc3ccccc32)c1C | inactive | – |
| Cc1csc(NC(=O)c2cc3c(s2)CCCCC3)n1 | inconclusive: 31.6 µM [inhibitor, single point] | – |
